The test deals with LRP on mouse embryonic fibroblast (MEF) cells (mouse) (UniProt Q91ZX7). In words: cell-based or functional assay. Conditions: scale: % of the corresponding amounts of 125I-fVIII.
UniProt Q91ZX7, sequence (Q91ZX7 20-4545): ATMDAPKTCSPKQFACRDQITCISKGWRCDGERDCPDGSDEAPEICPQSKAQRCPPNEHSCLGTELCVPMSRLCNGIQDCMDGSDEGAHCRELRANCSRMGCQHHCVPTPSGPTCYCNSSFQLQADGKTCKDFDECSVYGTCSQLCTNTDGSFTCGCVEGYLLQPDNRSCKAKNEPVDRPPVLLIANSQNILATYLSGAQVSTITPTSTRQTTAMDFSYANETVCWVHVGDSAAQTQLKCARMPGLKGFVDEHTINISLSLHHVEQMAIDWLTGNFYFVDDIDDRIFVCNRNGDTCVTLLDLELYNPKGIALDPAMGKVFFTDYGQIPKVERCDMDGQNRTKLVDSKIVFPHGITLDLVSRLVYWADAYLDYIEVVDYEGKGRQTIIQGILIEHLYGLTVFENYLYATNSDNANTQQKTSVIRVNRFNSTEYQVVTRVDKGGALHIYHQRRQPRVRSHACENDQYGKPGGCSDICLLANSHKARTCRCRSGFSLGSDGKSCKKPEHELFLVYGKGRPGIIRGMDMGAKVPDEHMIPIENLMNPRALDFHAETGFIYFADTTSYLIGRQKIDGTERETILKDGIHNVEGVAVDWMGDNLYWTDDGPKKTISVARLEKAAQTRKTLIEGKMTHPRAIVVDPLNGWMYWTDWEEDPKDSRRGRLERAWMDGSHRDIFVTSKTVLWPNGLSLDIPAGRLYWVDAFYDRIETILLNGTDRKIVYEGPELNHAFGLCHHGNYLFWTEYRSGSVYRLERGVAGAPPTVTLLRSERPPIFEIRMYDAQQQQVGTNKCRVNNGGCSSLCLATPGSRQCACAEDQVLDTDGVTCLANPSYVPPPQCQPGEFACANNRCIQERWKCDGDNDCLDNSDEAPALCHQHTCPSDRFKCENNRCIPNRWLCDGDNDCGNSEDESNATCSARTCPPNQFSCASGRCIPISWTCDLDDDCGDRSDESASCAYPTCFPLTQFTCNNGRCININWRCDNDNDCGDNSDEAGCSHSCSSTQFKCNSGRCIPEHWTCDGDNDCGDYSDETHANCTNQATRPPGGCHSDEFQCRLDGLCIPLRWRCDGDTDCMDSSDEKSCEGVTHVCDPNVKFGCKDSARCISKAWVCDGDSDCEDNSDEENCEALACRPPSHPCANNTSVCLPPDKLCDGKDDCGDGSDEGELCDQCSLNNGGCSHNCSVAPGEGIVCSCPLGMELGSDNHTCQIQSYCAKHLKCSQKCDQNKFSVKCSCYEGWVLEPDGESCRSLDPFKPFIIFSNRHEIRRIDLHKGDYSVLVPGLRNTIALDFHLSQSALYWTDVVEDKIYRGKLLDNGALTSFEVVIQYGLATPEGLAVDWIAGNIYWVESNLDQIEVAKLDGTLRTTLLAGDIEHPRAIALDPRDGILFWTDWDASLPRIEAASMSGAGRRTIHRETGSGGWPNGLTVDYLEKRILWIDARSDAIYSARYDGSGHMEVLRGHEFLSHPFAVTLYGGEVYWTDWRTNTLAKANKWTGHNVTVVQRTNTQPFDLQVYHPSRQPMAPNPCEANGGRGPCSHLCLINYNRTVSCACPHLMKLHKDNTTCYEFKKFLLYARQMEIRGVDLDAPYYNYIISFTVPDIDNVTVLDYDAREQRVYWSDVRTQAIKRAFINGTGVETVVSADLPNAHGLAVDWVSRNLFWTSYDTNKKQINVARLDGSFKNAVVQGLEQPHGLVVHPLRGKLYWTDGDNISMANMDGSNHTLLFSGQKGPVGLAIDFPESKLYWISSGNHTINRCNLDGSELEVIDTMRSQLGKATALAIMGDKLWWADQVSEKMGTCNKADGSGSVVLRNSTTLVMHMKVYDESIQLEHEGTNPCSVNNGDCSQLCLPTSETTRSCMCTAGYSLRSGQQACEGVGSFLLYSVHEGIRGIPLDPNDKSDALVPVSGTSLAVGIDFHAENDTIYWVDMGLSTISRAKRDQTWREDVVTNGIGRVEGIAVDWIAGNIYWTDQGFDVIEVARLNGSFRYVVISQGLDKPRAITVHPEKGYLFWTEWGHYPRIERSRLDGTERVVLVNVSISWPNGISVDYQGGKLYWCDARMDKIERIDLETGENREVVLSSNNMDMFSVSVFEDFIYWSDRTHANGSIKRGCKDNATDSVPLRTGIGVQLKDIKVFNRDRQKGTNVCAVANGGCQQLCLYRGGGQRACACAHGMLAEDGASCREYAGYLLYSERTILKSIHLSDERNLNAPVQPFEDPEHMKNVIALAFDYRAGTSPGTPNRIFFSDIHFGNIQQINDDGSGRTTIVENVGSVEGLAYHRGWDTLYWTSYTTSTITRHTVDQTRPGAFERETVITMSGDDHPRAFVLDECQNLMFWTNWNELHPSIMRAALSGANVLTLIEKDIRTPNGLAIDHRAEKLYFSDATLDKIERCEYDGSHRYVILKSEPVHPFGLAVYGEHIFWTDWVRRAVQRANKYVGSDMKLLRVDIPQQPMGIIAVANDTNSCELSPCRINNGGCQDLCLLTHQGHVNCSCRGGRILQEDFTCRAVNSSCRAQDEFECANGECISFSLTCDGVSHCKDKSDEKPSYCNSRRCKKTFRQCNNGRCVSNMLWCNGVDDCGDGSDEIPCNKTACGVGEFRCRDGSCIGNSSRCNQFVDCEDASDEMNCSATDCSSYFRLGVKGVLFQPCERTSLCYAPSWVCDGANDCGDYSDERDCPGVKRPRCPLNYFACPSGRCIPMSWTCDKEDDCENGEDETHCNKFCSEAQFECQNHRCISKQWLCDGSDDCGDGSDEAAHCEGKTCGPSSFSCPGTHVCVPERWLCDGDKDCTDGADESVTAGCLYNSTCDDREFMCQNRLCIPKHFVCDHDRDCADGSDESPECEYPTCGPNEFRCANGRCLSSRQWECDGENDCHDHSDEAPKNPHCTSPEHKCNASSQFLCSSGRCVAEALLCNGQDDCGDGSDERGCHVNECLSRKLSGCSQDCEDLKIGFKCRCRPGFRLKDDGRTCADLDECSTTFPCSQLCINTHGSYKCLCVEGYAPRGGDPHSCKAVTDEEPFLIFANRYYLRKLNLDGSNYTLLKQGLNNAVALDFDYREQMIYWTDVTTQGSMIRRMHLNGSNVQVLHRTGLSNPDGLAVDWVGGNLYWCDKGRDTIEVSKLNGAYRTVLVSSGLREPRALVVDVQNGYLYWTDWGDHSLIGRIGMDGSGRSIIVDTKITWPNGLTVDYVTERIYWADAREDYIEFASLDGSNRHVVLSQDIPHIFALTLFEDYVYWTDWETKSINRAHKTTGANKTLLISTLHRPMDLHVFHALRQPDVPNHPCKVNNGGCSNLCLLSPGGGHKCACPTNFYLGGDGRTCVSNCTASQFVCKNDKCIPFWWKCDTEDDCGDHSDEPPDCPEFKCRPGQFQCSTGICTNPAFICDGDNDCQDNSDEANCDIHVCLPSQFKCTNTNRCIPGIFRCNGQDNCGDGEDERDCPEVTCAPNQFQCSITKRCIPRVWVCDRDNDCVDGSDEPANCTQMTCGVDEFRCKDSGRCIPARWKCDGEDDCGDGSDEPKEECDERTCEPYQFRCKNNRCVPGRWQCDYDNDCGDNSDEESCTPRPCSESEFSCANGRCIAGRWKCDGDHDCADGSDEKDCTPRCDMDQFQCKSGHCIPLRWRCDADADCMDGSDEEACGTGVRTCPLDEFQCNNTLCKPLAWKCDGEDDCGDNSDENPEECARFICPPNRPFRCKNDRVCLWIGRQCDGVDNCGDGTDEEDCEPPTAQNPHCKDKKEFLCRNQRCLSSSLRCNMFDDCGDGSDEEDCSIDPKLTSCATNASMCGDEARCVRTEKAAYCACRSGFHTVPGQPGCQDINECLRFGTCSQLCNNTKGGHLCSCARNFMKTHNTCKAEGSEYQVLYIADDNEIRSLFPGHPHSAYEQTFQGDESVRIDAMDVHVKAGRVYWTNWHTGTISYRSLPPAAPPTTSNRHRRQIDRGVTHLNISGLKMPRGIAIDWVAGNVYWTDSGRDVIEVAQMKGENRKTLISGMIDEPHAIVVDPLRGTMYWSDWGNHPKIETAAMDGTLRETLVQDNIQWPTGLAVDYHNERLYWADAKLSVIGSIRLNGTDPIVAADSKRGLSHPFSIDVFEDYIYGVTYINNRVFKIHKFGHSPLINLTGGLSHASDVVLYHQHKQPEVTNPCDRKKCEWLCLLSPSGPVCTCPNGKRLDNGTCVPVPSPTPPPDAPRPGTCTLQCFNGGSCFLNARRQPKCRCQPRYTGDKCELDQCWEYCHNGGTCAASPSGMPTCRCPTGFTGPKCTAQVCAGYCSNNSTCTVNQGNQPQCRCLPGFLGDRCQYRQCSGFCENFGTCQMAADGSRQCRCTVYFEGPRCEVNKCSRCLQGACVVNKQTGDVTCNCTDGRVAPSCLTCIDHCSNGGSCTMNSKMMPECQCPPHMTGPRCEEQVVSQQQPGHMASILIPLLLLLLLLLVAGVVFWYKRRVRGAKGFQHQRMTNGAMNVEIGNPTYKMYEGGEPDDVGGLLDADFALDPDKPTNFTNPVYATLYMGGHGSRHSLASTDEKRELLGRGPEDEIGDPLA

The substance “von Willebrand factor (vWf) (a stretch of the chain, no sequence given)” registered an internalized and degraded 125I-vWf from its complex with fVIII, MEF and PEA 13 cells of under 5.

Values taken from patent US20040248785A1.
